40 sequences from the supplement of paper PMC7826260 can be followed below.

The other results are listed elsewhere or left out. Each Rep nickase domain was tested in vitro on the same pool of single strands at 3 µM enzyme and 37 °C for 1 h; the strands have 90 letters, of which the middle is given. Uncut reads are compared with the no-enzyme pool on a log2 scale; uncut sequences lie near 0, cut ones below; no hit call is given. Reads are scaled to the total, so uncut sequences can rise above 0 when many others are cut.

One assay concerns T1, Rep nickase domain of porcine circovirus 2.
T1 sequence (protein, residues 2-116, tag omitted): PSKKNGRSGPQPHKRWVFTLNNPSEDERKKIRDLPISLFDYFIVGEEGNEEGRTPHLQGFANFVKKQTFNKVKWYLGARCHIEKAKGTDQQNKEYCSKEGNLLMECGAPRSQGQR
As to the kind of experiment: uncleaved DNA left, log2 of reads against the no-enzyme library (log2 ratio); higher = less cleavage (more negative = more Rep cleavage of the k-mer); sequences stand for … in CTCGTCCG…ACCGGAGA
The protocol: (§1)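 A pool of 90-nt single-stranded DNAs with seven random bases just before the constant AC of the nick site (name = the seven bases) was cut by 3 µM recombinant His6-SUMO-tagged Rep nickase domain (300 nM DNA, 50 mM HEPES pH 8.0, 50 mM NaCl, 1 mM MnCl2, 1 h, 37 °C, three replicates). Uncut DNA was amplified and sequenced.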
As for GAGTGCT, the “uncleaved DNA left (log2)” value is -3.07.

As for TCACCTT, the “uncleaved DNA left (log2)” value was -0.616.

With TAACCTG, the “uncleaved DNA left (log2)” value is -0.287.

Take TACGGAT: the “uncleaved DNA left (log2)” value worked out at 0.238.

As to CACGCGT, the “uncleaved DNA left (log2)” value was -0.0316.

For the sequence GCTATCC, the “uncleaved DNA left (log2)” value came to 0.17.

With GAGAGAT, the “uncleaved DNA left (log2)” value is -0.566.

GCATCCG: the “uncleaved DNA left (log2)” value turned out to be 0.161.

On to CACGAAT, for which the “uncleaved DNA left (log2)” value was -0.449.

As to CGCGCTT, the “uncleaved DNA left (log2)” value was -0.218.

With TTTTCCA, the “uncleaved DNA left (log2)” value is -0.415.

As to AGCCGAT, the “uncleaved DNA left (log2)” value was 0.012.

Regarding AATTTTT, the “uncleaved DNA left (log2)” value is -3.94.

For the sequence TTATGCT, the “uncleaved DNA left (log2)” value was -2.84.

In the case of CACTATG, the “uncleaved DNA left (log2)” value was -0.0269.

As for GGTAGTA, the “uncleaved DNA left (log2)” value amounted to 0.117.

Turning to ACAGCCC, the “uncleaved DNA left (log2)” value was -0.0587.

For the sequence CGTAAGC, the “uncleaved DNA left (log2)” value turned out to be 0.0415.

TCCTTTC: the “uncleaved DNA left (log2)” value was -0.163.

As to GGTGAAC, the “uncleaved DNA left (log2)” value was determined as 0.192.

Take AGATTGA: the “uncleaved DNA left (log2)” value was -0.0145.

Turning to CAAATGG, the “uncleaved DNA left (log2)” value was determined as 0.202.

With CCGGGGT, the “uncleaved DNA left (log2)” value is 0.0449.

In the case of GAGGGGG, the “uncleaved DNA left (log2)” value is 0.205.

For the sequence TGGACCA, the “uncleaved DNA left (log2)” value was 0.0941.

For ATGGTTG, the “uncleaved DNA left (log2)” value amounted to 0.103.

In the case of AACAGGG, the “uncleaved DNA left (log2)” value is 0.213.

Consider AAATCCG, for which the “uncleaved DNA left (log2)” value is 0.285.

In the case of GTTAGTT, the “uncleaved DNA left (log2)” value is -0.0878.

In the case of GGCCTCA, the “uncleaved DNA left (log2)” value was 0.223.

Take TGTTTGA: the “uncleaved DNA left (log2)” value was -0.0131.

Regarding TCCCGTC, the “uncleaved DNA left (log2)” value is -0.0641.

On to ACCTTTT, for which the “uncleaved DNA left (log2)” value is -3.38.

Consider AACACGG, for which the “uncleaved DNA left (log2)” value turned out to be 0.0557.

On to GGCTCAT, for which the “uncleaved DNA left (log2)” value turned out to be 0.0981.

Consider GACCTTC, for which the “uncleaved DNA left (log2)” value is -0.0567.

TATCCGT: the “uncleaved DNA left (log2)” value came to 0.13.

For CTGATTC, the “uncleaved DNA left (log2)” value is -0.012.

Take CGCATCC: the “uncleaved DNA left (log2)” value was found to be 0.0648.

On to TCAGGCA, for which the “uncleaved DNA left (log2)” value was -0.0242.

For another assay, the system named is T2, Rep nickase domain of tomato golden mosaic virus.
T2 sequence (protein, residues 1-124, tag omitted): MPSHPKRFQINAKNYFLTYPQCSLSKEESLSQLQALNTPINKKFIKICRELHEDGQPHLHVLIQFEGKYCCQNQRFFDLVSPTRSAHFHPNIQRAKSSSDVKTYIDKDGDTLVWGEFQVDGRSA
The assay is described as above. The protocol:
as §1
As for GAGTGCT, the “uncleaved DNA left (log2)” value is -0.0754.

Consider TCACCTT, for which the “uncleaved DNA left (log2)” value is -0.0732.

On to TAACCTG, for which the “uncleaved DNA left (log2)” value is -0.0939.

As to TACGGAT, the “uncleaved DNA left (log2)” value turned out to be 0.0717.

Regarding CACGCGT, the “uncleaved DNA left (log2)” value is -0.0411.

Regarding GCTATCC, the “uncleaved DNA left (log2)” value worked out at 0.0232.

For the sequence GAGAGAT, the “uncleaved DNA left (log2)” value was 0.103.

For the sequence GCATCCG, the “uncleaved DNA left (log2)” value was -0.0062.

Consider CACGAAT, for which the “uncleaved DNA left (log2)” value is -0.23.

As for CGCGCTT, the “uncleaved DNA left (log2)” value is -0.0787.

Regarding TTTTCCA, the “uncleaved DNA left (log2)” value is -0.128.

For AGCCGAT, the “uncleaved DNA left (log2)” value stood at 0.113.

In the case of AATTTTT, the “uncleaved DNA left (log2)” value is -0.796.

On to TTATGCT, for which the “uncleaved DNA left (log2)” value is -0.871.

CACTATG: the “uncleaved DNA left (log2)” value turned out to be 0.147.

As to GGTAGTA, the “uncleaved DNA left (log2)” value is 0.0147.

Regarding ACAGCCC, the “uncleaved DNA left (log2)” value is -0.067.

For CGTAAGC, the “uncleaved DNA left (log2)” value was 0.0479.

With TCCTTTC, the “uncleaved DNA left (log2)” value was -0.142.

As to GGTGAAC, the “uncleaved DNA left (log2)” value is 0.0999.

For AGATTGA, the “uncleaved DNA left (log2)” value worked out at 0.0501.

Consider CAAATGG, for which the “uncleaved DNA left (log2)” value stood at 0.0675.

For CCGGGGT, the “uncleaved DNA left (log2)” value is 0.0119.

For GAGGGGG, the “uncleaved DNA left (log2)” value came out at 0.146.

On to TGGACCA, for which the “uncleaved DNA left (log2)” value was 0.0453.

ATGGTTG: the “uncleaved DNA left (log2)” value was found to be 0.106.

For the sequence AACAGGG, the “uncleaved DNA left (log2)” value is 0.116.

Consider AAATCCG, for which the “uncleaved DNA left (log2)” value stood at 0.063.

With GTTAGTT, the “uncleaved DNA left (log2)” value is -0.00605.

Consider GGCCTCA, for which the “uncleaved DNA left (log2)” value is 0.161.

With TGTTTGA, the “uncleaved DNA left (log2)” value was determined as 0.0495.

As to TCCCGTC, the “uncleaved DNA left (log2)” value was -0.0965.

For the sequence ACCTTTT, the “uncleaved DNA left (log2)” value is -0.112.

Regarding AACACGG, the “uncleaved DNA left (log2)” value was determined as 0.103.

Consider GGCTCAT, for which the “uncleaved DNA left (log2)” value was determined as 0.0654.

As for GACCTTC, the “uncleaved DNA left (log2)” value is -0.0575.

In the case of TATCCGT, the “uncleaved DNA left (log2)” value is -0.0291.

As for CTGATTC, the “uncleaved DNA left (log2)” value is -0.19.

Take CGCATCC: the “uncleaved DNA left (log2)” value was -0.0155.

On to TCAGGCA, for which the “uncleaved DNA left (log2)” value came out at 0.0456.

A further assay has as its system T3, Rep nickase domain of tomato yellow leaf curl virus.
T3 sequence (protein, residues 1-136, tag omitted): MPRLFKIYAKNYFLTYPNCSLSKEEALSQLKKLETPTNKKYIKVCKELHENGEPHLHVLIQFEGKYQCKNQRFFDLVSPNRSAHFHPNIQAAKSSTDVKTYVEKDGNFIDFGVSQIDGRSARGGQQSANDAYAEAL
The assay is described as above. The protocol:
as §1
As for GAGTGCT, the “uncleaved DNA left (log2)” value was 0.0118.

For TCACCTT, the “uncleaved DNA left (log2)” value is -0.199.

On to TAACCTG, for which the “uncleaved DNA left (log2)” value turned out to be 0.00333.

Consider TACGGAT, for which the “uncleaved DNA left (log2)” value turned out to be 0.0363.

On to CACGCGT, for which the “uncleaved DNA left (log2)” value turned out to be 0.0372.

In the case of GCTATCC, the “uncleaved DNA left (log2)” value is 0.0191.

Consider GAGAGAT, for which the “uncleaved DNA left (log2)” value turned out to be 0.0342.

As to GCATCCG, the “uncleaved DNA left (log2)” value is -0.0347.

For CACGAAT, the “uncleaved DNA left (log2)” value is -0.164.

Turning to CGCGCTT, the “uncleaved DNA left (log2)” value is -0.0791.

Regarding TTTTCCA, the “uncleaved DNA left (log2)” value is -0.0149.

With AGCCGAT, the “uncleaved DNA left (log2)” value is -0.0798.

Turning to AATTTTT, the “uncleaved DNA left (log2)” value was -0.0976.

Turning to TTATGCT, the “uncleaved DNA left (log2)” value turned out to be 0.153.

For the sequence CACTATG, the “uncleaved DNA left (log2)” value came out at 0.14.

With GGTAGTA, the “uncleaved DNA left (log2)” value amounted to 0.0488.

As for ACAGCCC, the “uncleaved DNA left (log2)” value is -0.249.

Turning to CGTAAGC, the “uncleaved DNA left (log2)” value turned out to be 0.0383.

As for TCCTTTC, the “uncleaved DNA left (log2)” value is -0.173.

Consider GGTGAAC, for which the “uncleaved DNA left (log2)” value was found to be 0.034.

For the sequence AGATTGA, the “uncleaved DNA left (log2)” value was found to be 0.0396.

As to CAAATGG, the “uncleaved DNA left (log2)” value is 0.0419.

For CCGGGGT, the “uncleaved DNA left (log2)” value is -0.0579.

GAGGGGG: the “uncleaved DNA left (log2)” value was found to be 0.102.

As to TGGACCA, the “uncleaved DNA left (log2)” value was 0.103.

Take ATGGTTG: the “uncleaved DNA left (log2)” value is -0.0364.

Turning to AACAGGG, the “uncleaved DNA left (log2)” value was found to be 0.0379.

Regarding AAATCCG, the “uncleaved DNA left (log2)” value was 0.0854.

On to GTTAGTT, for which the “uncleaved DNA left (log2)” value was determined as 0.0324.

Turning to GGCCTCA, the “uncleaved DNA left (log2)” value is 0.225.

As to TGTTTGA, the “uncleaved DNA left (log2)” value is 0.0938.

Take TCCCGTC: the “uncleaved DNA left (log2)” value was -0.0445.

As to ACCTTTT, the “uncleaved DNA left (log2)” value turned out to be 0.0602.

For the sequence AACACGG, the “uncleaved DNA left (log2)” value was -0.0364.

As to GGCTCAT, the “uncleaved DNA left (log2)” value stood at 0.105.

Consider GACCTTC, for which the “uncleaved DNA left (log2)” value is -0.0201.

Consider TATCCGT, for which the “uncleaved DNA left (log2)” value was found to be 0.054.

On to CTGATTC, for which the “uncleaved DNA left (log2)” value is 0.0701.

For CGCATCC, the “uncleaved DNA left (log2)” value came out at 0.0368.

In the case of TCAGGCA, the “uncleaved DNA left (log2)” value was 0.0433.
